According to PubChem BioAssay AID686971 (National Center for Advancing Translational Sciences (NCATS), 2013):
Hit rate of the full screen: of about 360,000 compounds, about 7,500 (2.1%) were called active. The shares of active, inactive and inconclusive entries below differ from those in the screen. The call rests on the fitted dose curve; in most records, active means well fitted cell-killing curve with a large enough effect; inconclusive means small, poorly fitted or top-dose-only effect, or effect the other way, or another doubt; inactive means no such curve, though single readings can be large or run the other way. Potencies of inconclusive entries are left out as doubtful fits.

Assay: qHTS for induction of synthetic lethality in tumor cells producing 2HG: qHTS for the HT-1080-IDH1KD cell line;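 on activity, negative = toxicity: 0% = DMSO wells and -100% = cell-free medium wells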
Details: HT-1080 IDH1 knockdown viability, ATP luminescence, 48 h; activity, negative = toxicity: at 46.1 µM (top of the series) unless noted
In short: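 Using the IDH1-knockdown HT-1080 line run in the same batch and compound series as the NT line, viability after 48 h at 37 °C was determined by CellTiter-Glo luminescence and expressed as % activity.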
Potency means the concentration at half of the fitted maximal effect; tags describe the fitted curve by direction and shape.

Q: For `CN(C(=S)NC1CCCCC1)C1(c2ccccc2Cl)CCCCC1=O` (stereo unspecified), which Potency is on record?
A: inconclusive [cytotoxic, single point]

Q: With `CN1C(=O)C(=O)/C(=C(/O)c2ccccc2)C1c1ccc([N+](=O)[O-])cc1` (stereo unspecified) as the molecule, how does the “activity, negative = toxicity” value read?
A: inactive: 13.8%

Q: Which Potency does the source give for `CCOc1ccc(CCN2C(=S)N([C@@H](CC(C)C)CN3CCCC3CN3C(=S)NC[C@@H]3Cc3ccc(O)cc3)C[C@@H]2CC(C)C)cc1` (stereo partly specified) here?
A: inconclusive [cytotoxic, single point]

Q: Which “activity, negative = toxicity” value does the source give for `CCOC(=O)C1=C[C@@H](C(C)(C)C)N(S(=O)(=O)c2ccc(C)cc2)[C@H]1c1ccc(C#N)cc1` here?
A: inactive: -2.52%

Q: Which Potency does the source give for `CC1(C)CC(=O)C2=C(C1)c1c(ccc3ccccc13)NC2c1ccc(Br)o1` (stereo unspecified) here?
A: inconclusive [cytotoxic, single point]

Q: With `O=C(NC(=S)NNC(=O)c1cccs1)c1ccccc1` as the molecule, how does the Potency read?
A: inconclusive [cytotoxic, partial curve]

Q: Which Potency does the source give for `CCCCCCCCCn1c2c(c(=N)c3c1CCC3)CCC2` here?
A: inconclusive [cytotoxic, partial curve, poor fit]

Q: With `Cc1ccc2c(CC(=O)NCc3ccco3)coc2c1C` as the molecule, how does the Potency read?
A: active: 7.31 µM

Q: Which Potency does the source give for `O=C(NC(=O)c1ccccc1O)c1ccc(C(F)(F)F)cc1` here?
A: active: 14.6 µM

Q: Which “activity, negative = toxicity” value does the source give for `COc1cccc(-c2nc(CS(=O)(=O)CC(=O)Nc3cccc(C)c3C)c(C)o2)c1` here?
A: inactive: -0.11%

Q: For `CCCn1c(C(C)NC(C)=O)nc2ccccc21` (stereo unspecified), which “activity, negative = toxicity” value is on record?
A: inactive: 4.87%

Q: For `CCCOc1ccc(C(=O)Nc2nc(C)c(Cc3ccc4c(c3)OCO4)s2)cc1`, which Potency is on record?
A: inconclusive [cytotoxic, full curve]

Q: With `COCCCNC(=O)C[C@H]1C[C@H](C(=O)N2CCOCC2)[C@@]2(CCC3CCCC3)c3[nH]c4cc(CCC(=O)N(C)C)ccc4c3CCN2C1=O` as the molecule, how does the “activity, negative = toxicity” value read?
A: inactive: 2.22%

Q: Which Potency does the source give for `OC1(c2cccc(C(F)(F)F)c2)CCN(c2ncnc3c2[nH]c2ccccc23)CC1` here?
A: inconclusive [cytotoxic, single point]

Q: Which “activity, negative = toxicity” value does the source give for `CS(=O)(=O)Nc1ccc(C(=O)NCCSCc2c(F)cccc2Cl)cc1` here?
A: inactive: -0.185%

Q: Which Potency does the source give for `O=C(OCc1ccc(Br)cc1)c1cnc(Cl)c(Cl)c1` here?
A: inconclusive [cytotoxic, single point]

Q: With `COC(=O)c1ccc(CN2CCC(CO)(Cc3ccccc3Cl)CC2)cc1` as the molecule, how does the Potency read?
A: inconclusive [cytotoxic, single point]

Q: Which “activity, negative = toxicity” value does the source give for `COC(CNC(=O)c1ccc(CS(=O)(=O)c2c(Cl)cccc2Cl)o1)OC` here?
A: inactive: 13.3%

Q: Which Potency does the source give for `Cc1ccc(NC(=O)c2ccccc2NS(=O)(=O)c2ccc(Cl)s2)cc1` here?
A: inconclusive [cytotoxic, partial curve]

Q: Which “activity, negative = toxicity” value does the source give for `C/C(=N\NC(=O)c1c(Br)c(C)nn1C)c1cccc(NC(=O)c2ccccc2F)c1` here?
A: inactive: -0.29%

Q: With `COc1ccc(CCNC(=O)CN(c2cc([N+](=O)[O-])ccc2OC)S(C)(=O)=O)cc1OC` as the molecule, how does the activity, negative = toxicity read?
A: inconclusive: -8.25% [cytotoxic]

Q: With `COc1ccc(-n2ncc3c2CC(C)(C)CC3NC(=O)c2ccnn2C)cc1` (stereo unspecified) as the molecule, how does the “activity, negative = toxicity” value read?
A: inactive: -3.69%

Q: With `COc1cc(NC(=O)Nc2ccccc2)c(OC)cc1NC(=O)CN1CCCCC1` as the molecule, how does the Potency read?
A: inconclusive [cytotoxic, single point]

Q: For `O=S(=O)(NCC(Nc1ccc(Cl)cc1)c1ccccc1)c1ccccc1` (stereo unspecified), which Potency is on record?
A: inconclusive [cytotoxic, single point]

Q: For `COc1cc(/C=N/NC(=O)c2cc(-c3ccccc3)sc2N)cc(OC)c1OC`, which Potency is on record?
A: inconclusive [cytotoxic, partial curve]

Q: Which Potency does the source give for `CCCCn1c(N)c(C(=S)NC(=O)CC(C)(C)C)c(=O)n(C)c1=O` here?
A: inconclusive [cytotoxic, single point]

Q: For `CC(=O)Nc1ccc(SCC(=O)c2ccc(Br)s2)cc1`, which Potency is on record?
A: active: 18.4 µM

Q: For `CC(=O)Cc1nsc(NC(=O)c2ccc(COc3ccccc3C)o2)n1`, which Potency is on record?
A: inconclusive [cytotoxic, single point]

Q: For `COc1ccc(-c2cc3ncc(-c4ccccc4)c(N)n3n2)cc1`, which Potency is on record?
A: inconclusive [cytotoxic, single point]

Q: With `CCc1ccc(-c2cc(C(=O)N3N=C(C(F)F)CC3(O)C(F)F)c3ccccc3n2)cc1` (stereo unspecified) as the molecule, how does the Potency read?
A: inconclusive [cytotoxic, single point]

Q: With `Cc1ccc(S(=O)(=O)N(C)C)cc1NC(=S)NC(C)CCCC(C)C` (stereo unspecified) as the molecule, how does the Potency read?
A: inconclusive [cytotoxic, single point]

Q: Which “activity, negative = toxicity” value does the source give for `O=C1[C@@H](Oc2ccccc2)[C@@H](c2ccccc2)N1c1cccnc1` here?
A: inactive: -0.898%

Q: With `COCCNC(=O)C1CCCN(Cc2ccc(C(C)C)cc2)CC1` (stereo unspecified) as the molecule, how does the activity, negative = toxicity read?
A: inconclusive: 30.4%

Q: With `CCN(CC(=O)Nc1ccc2c(c1)OCCO2)CC(=O)Nc1ccccc1C(F)(F)F` as the molecule, how does the “activity, negative = toxicity” value read?
A: inactive: 0.881%

Q: For `Cc1ccc(-c2nc3cccnc3o2)cc1NC(=O)COc1ccc(C(C)(C)C)cc1`, which Potency is on record?
A: inconclusive [cytotoxic, single point]

Q: For `Cc1noc(C(=O)N2CC3(C)CC2CC(C)(C)C3)c1Cl` (stereo unspecified), which “activity, negative = toxicity” value is on record?
A: inactive: -1.26%

Q: With `COc1ccccc1C(c1nnnn1Cc1ccco1)N1CCN(c2cccc(C)c2C)CC1` (stereo unspecified) as the molecule, how does the Potency read?
A: inconclusive [cytotoxic, single point]

Q: Which Potency does the source give for `CC(C)C[C@H]1CN(CCCC[C@H]2CNC(=O)C(=O)N2CCC2CCCCC2)C(=O)C(=O)N1CCC1CCCCC1` here?
A: active: 23.1 µM

Q: Which Potency does the source give for `Cc1sc(NC(=O)CN2CCOCC2)nc1-c1ccc2c(c1)CCN2S(=O)(=O)c1ccccc1` here?
A: inconclusive [cytotoxic, single point]

Q: With `CCCCCCn1c(CN2CCCCC2CC)nc2c1c(=O)n(C)c(=O)n2C` (stereo unspecified) as the molecule, how does the “activity, negative = toxicity” value read?
A: inactive: 0.0574%

Q: With `C[C@H](CO)N1C[C@H](C)[C@H](CN(C)C(=O)c2ccccc2)OCc2ccccc2-c2c(n(C)c3ccccc23)C1=O` as the molecule, how does the Potency read?
A: inconclusive [cytotoxic, single point]

Q: Which “activity, negative = toxicity” value does the source give for `Cc1ccc(CS(=O)(=O)CCC(=O)NCCCN2CCCC2=O)cc1` here?
A: inactive: 9.95%

Q: Which Potency does the source give for `Cc1cccc2c1Sc1ccc(Cl)cc1CC2N1CCNCC1` (stereo unspecified) here?
A: inconclusive [cytotoxic, single point]

Q: For `O=C(CC(=O)c1ccccc1)CC(O)(C=Cc1ccccc1)c1ccccc1` (stereo unspecified), which Potency is on record?
A: inconclusive [cytotoxic, single point]

Q: Which Potency does the source give for `CCOC(=O)C1=CCN(S(=O)(=O)c2ccccc2C)C1c1ccc(Cl)c(Cl)c1` (stereo unspecified) here?
A: inconclusive [cytotoxic, partial curve]

Q: For `O=C(N/N=C/c1sc(N2CCCCC2)nc1-c1cccs1)c1cccnc1`, which Potency is on record?
A: inconclusive [cytotoxic, single point]

Q: For `C/C(=N\Nc1cccc([N+](=O)[O-])c1)c1cc2ccccc2o1`, which “activity, negative = toxicity” value is on record?
A: inactive: 2.93%

Q: Which Potency does the source give for `Nc1[nH]c(C(=O)c2ccccc2)c(-c2ccncc2)c1C(=O)NC1CC1` here?
A: inconclusive [cytotoxic, single point]

Q: With `O=C1Nc2ccc([N+](=O)[O-])cc2OC1CCN1CCOCC1` (stereo unspecified) as the molecule, how does the Potency read?
A: inconclusive [cytotoxic, single point]

Q: For `CCOC(=O)c1sc(NC(=O)Nc2ccccc2)cc1C`, which Potency is on record?
A: inconclusive [cytotoxic, single point]

Q: Which activity, negative = toxicity does the source give for `COc1cc(CN2CCCC(N3CCN(c4ccccc4C)CC3)C2)ccc1O` (stereo unspecified) here?
A: inconclusive: -35.8% [cytotoxic]

Q: For `CCOc1ccc(Br)cc1C1C(C(=O)OC)=C(N)Oc2cc(N(C)C)ccc21` (stereo unspecified), which Potency is on record?
A: active: 14.6 µM

Q: With `Cc1cccc(C)c1NC(=O)C(c1ccccc1)N1CCOCC1` (stereo unspecified) as the molecule, how does the “activity, negative = toxicity” value read?
A: inactive: 10.8%

Q: Which Potency does the source give for `C/C(=N\NC(=O)c1cc(-c2ccncc2)nc2ccccc12)c1ccc(N2CCOCC2)cc1` here?
A: active: 10.3 µM

Q: For `CC(C)N(C)Cc1nnnn1CC(=O)NCCc1cccc(C(F)(F)F)c1`, which “activity, negative = toxicity” value is on record?
A: inactive: -5.59%

Q: Which Potency does the source give for `COc1ccc(C(=O)NCc2cc(C)nc3ccccc23)cc1` here?
A: inconclusive [cytotoxic, single point]

Q: For `CCC1=Nc2cc(C(=O)NCc3cccnc3)ccc2Sc2ccc(C)cc21`, which Potency is on record?
A: active: 2.59 µM

Q: Which “activity, negative = toxicity” value does the source give for `CCOc1ncccc1C(=O)OCC(=O)Nc1cccc(C(C)=O)c1` here?
A: inactive: 0.869%

Q: Which Potency does the source give for `CCOc1cccc(C(=O)Nc2ccc(NC(=O)c3ccccc3)c(C)c2)c1` here?
A: inconclusive [cytotoxic, single point]

Q: For `CC1(C)Cc2ccccc2C(NNC(=O)c2ccccn2)=N1`, which Potency is on record?
A: inconclusive [cytotoxic, partial curve]

Q: With `COc1ccc(-n2nc(C(=O)NCC(=O)NCC3CCCO3)c3ccccc3c2=O)cc1Cl` (stereo unspecified) as the molecule, how does the “activity, negative = toxicity” value read?
A: inactive: -3.57%

Q: With `CC(Sc1nc(NCc2ccccc2)nc(N(C)C)n1)C(=O)Nc1ccccc1` (stereo unspecified) as the molecule, how does the Potency read?
A: inconclusive [cytotoxic, partial curve]

Q: For `Cc1occc1-c1nnc(SCC(=O)Nc2nc(C(C)(C)C)cs2)o1`, which Potency is on record?
A: inconclusive [cytotoxic, single point]

Q: Which “activity, negative = toxicity” value does the source give for `Cc1cc(/C=C(\C#N)C(=O)NCc2ccco2)c(C)[nH]1` here?
A: inactive: 12.5%

Q: For `Cc1ccccc1Cn1cccc1/C=C1/C(=N)N2C=CSC2=NC1=O`, which Potency is on record?
A: inconclusive [cytotoxic, single point]

Q: For `CCOC(=O)c1[nH]c2ccc(OC)cc2c1NC(=S)N1CCN(c2cccc(Cl)c2)CC1`, which Potency is on record?
A: inconclusive [cytotoxic, single point]

Q: Which “activity, negative = toxicity” value does the source give for `O=C(CN(C(=O)c1csnn1)c1cccc(Cl)c1)NC1CCCCC1` here?
A: inactive: 1.4%

Q: Which Potency does the source give for `Cc1ccc(-c2cc(C(=O)N/N=C/c3ccoc3)c3ccccc3n2)cc1` here?
A: inconclusive [cytotoxic, single point]

Q: Which Potency does the source give for `O=C(Nc1ccc2oc(-c3ccncc3)nc2c1)c1ccc([N+](=O)[O-])o1` here?
A: active: 16.4 µM

Q: For `Cc1ccc(S(=O)(=O)c2c(C)nn(C(C)(C)C)c2OC(=O)c2cccs2)cc1`, which Potency is on record?
A: active: 25.9 µM

Q: Which Potency does the source give for `c1ccc(-c2csc(Nc3cccnc3)n2)nc1` here?
A: inconclusive [cytotoxic, single point]
